The other results are listed elsewhere or left out. Antibody binding of pooled human sera (four to six donors per pool; dilution not stated) to peptides of the Trypanosoma cruzi antigen TSSA on microarrays. Quantile-normalised fluorescence in arbitrary units, mean of duplicate arrays; higher = more binding. No active / inactive call. The uninfected pools are read here as the healthy donors of the same country. The strongest signals lie near the top of the scale (about 60,000).
Assays:
Assay in all cases: antibody binding signal (normalised fluorescence) (arbitrary fluorescence units); higher = stronger serum antibody binding to peptide
[1] = test system: pooled sera of chronic Chagas disease patients, Argentina
Protocol: (§1)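 Microarray of 15-residue peptides over residues 30-55 of Trypanosoma cruzi TSSAII, each with 1 to 10 substitutions at naturally variable positions, probed with one serum pool per country.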

[2] = test system: pooled sera of chronic Chagas disease patients, Bolivia
Protocol: as §1

[3] = test system: pooled sera of chronic Chagas disease patients, Brazil
Protocol: as §1

[4] = test system: pooled sera of chronic Chagas disease patients, Colombia
Protocol: as §1

[5] = test system: pooled sera of chronic Chagas disease patients, Mexico
Protocol: as §1

[6] = test system: pooled sera of chronic Chagas disease patients, USA
Protocol: as §1

[7] = test system: pooled sera of uninfected people, Argentina
Protocol: as §1

[8] = test system: pooled sera of uninfected people, Bolivia
Protocol: as §1

[9] = test system: pooled sera of uninfected people, Brazil
Protocol: as §1

[10] = test system: pooled sera of uninfected people, Colombia
Protocol: as §1

[11] = test system: pooled sera of uninfected people, Mexico
Protocol: as §1

[12] = test system: pooled sera of uninfected people, USA
Protocol: as §1

| Sequence | antibody binding signal [1] | antibody binding signal [2] | antibody binding signal [3] | antibody binding signal [4] | antibody binding signal [5] | antibody binding signal [6] | antibody binding signal [7] | antibody binding signal [8] | antibody binding signal [9] | antibody binding signal [10] | antibody binding signal [11] | antibody binding signal [12] |
| --- | --- | --- | --- | --- | --- | --- | --- | --- | --- | --- | --- | --- |
| SGKDKKAATGEAPSQ | 18200 | 4960 | 19000 | 532 | 623 | 17200 | 332 | 72.7 | 99 | 292 | 81.3 | 85.3 |
| GTDKKAAAGGTPSQS | 284 | 193 | 184 | 4820 | 396 | 1390 | 170 | 170 | 1210 | 139 | 302 | 117 |
| GKENKAAAGGTPSQP | 824 | 578 | 3470 | 3760 | 2470 | 9140 | 467 | 93.4 | 458 | 140 | 353 | 112 |
| GTEKKTAAGGAPSPS | 359 | 309 | 197 | 7940 | 1100 | 964 | 222 | 420 | 159 | 210 | 140 | 153 |
| SGKENKPATGEAPSQ | 46500 | 50400 | 49100 | 1210 | 3190 | 38300 | 9620 | 4950 | 349 | 451 | 788 | 207 |
| TPPSGKDNKTATGET | 4920 | 2640 | 2200 | 1030 | 26000 | 2340 | 269 | 451 | 166 | 311 | 124 | 121 |
| GTEKKTAAGGTPSQS | 619 | 233 | 296 | 8000 | 547 | 1720 | 213 | 289 | 1090 | 193 | 330 | 179 |
| GKDKKPATGEAPSQS | 43300 | 10500 | 38800 | 7150 | 7570 | 31000 | 743 | 257 | 96.1 | 192 | 79.5 | 127 |
| SGTDNKTATGGAPSP | 1150 | 723 | 39800 | 755 | 623 | 844 | 341 | 716 | 1400 | 238 | 242 | 313 |
| TPPSGTDNKAATGET | 37500 | 31300 | 43100 | 885 | 7510 | 9130 | 467 | 502 | 560 | 255 | 211 | 147 |
| ENKTAAGGTPSPPGA | 1130 | 1630 | 340 | 4720 | 337 | 1420 | 204 | 180 | 1210 | 241 | 1000 | 166 |
| PPSGKEKKTAAGEAP | 1180 | 744 | 2520 | 1850 | 2770 | 3550 | 481 | 695 | 106 | 313 | 144 | 174 |
| GKEKKAATGGAPSPP | 1450 | 182 | 288 | 912 | 2030 | 2020 | 252 | 145 | 95.4 | 285 | 98.4 | 120 |
| GTENKAATGEAPSPS | 38300 | 39400 | 35100 | 2180 | 2470 | 28400 | 170 | 386 | 136 | 168 | 132 | 89.8 |
| GTDKKAAAGETPSPP | 739 | 442 | 2330 | 4420 | 1000 | 2000 | 149 | 356 | 125 | 244 | 397 | 475 |
| GKENKTAAGGTPSPS | 1820 | 255 | 5930 | 4470 | 2830 | 12400 | 319 | 91.1 | 310 | 170 | 530 | 126 |
| STPPSGTEKKTATGE | 31000 | 27700 | 26900 | 311 | 15900 | 3020 | 758 | 266 | 500 | 155 | 130 | 96.9 |
| DKKAAAGETPSQSGA | 806 | 418 | 5560 | 318 | 275 | 1380 | 135 | 187 | 209 | 533 | 266 | 169 |
| EKKTAAGGTPSPPGA | 495 | 265 | 260 | 9960 | 458 | 1980 | 143 | 728 | 908 | 301 | 156 | 768 |
| GKEKKTATGGTPSQS | 3470 | 291 | 402 | 2380 | 3150 | 2630 | 229 | 98.4 | 151 | 131 | 133 | 93.3 |
| EKKAATGGAPSQPGA | 1890 | 1490 | 6650 | 1480 | 2710 | 1600 | 344 | 1560 | 148 | 759 | 341 | 801 |
| EKKPATGEAPSQSGA | 46800 | 49200 | 50400 | 369 | 344 | 47800 | 990 | 1050 | 318 | 315 | 332 | 758 |
| GKEKKPAAGEAPSPS | 2640 | 294 | 1180 | 1750 | 3180 | 11700 | 135 | 78.7 | 82.1 | 113 | 78.4 | 268 |
| PSGKDKKPAAGGAPS | 4930 | 799 | 3680 | 8890 | 7290 | 5640 | 114 | 250 | 108 | 102 | 80.8 | 96 |
| KEKKAAAGGTPSQPG | 192 | 187 | 297 | 1690 | 137 | 1160 | 133 | 76.8 | 1000 | 122 | 132 | 92.2 |

From the supplement of paper PMC10441789
